The campaign covered roughly 410,000 compounds. About 530 (0.13%) were called active. This list was built around the results that the source calls inconclusive (neither active nor inactive); the mix of calls is not that of the screen. The call rests on the fitted dose curve; in most records, active means well fitted inhibition curve with a large enough effect; inconclusive means small, poorly fitted or top-dose-only effect, or another doubt; inactive means no such curve, though single readings can be large or run the other way. Where the call is inconclusive, the potency comes from a doubtful curve fit.
Test: qHTS of GLP-1 Receptor Inverse Agonists: Cytotox Screen
Details: HEK293 cAMP-luciferase reporter cells, luminescence, 24 h; activity change, negative = inhibition: at 38.3 µM (top of the series) unless noted
How it was run: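 To flag toxic compounds, the library was rerun on cells for 24 hr at 37 deg C and 5% CO2. Viability-linked luminescence was captured 12 min after adding luciferase detection reagent.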
On the % scale 0 is the no-effect control and ±100 the full control effect; potency means the concentration at half of the fitted maximal effect.

SMILES	Potency	activity change, negative = inhibition
CCc1cc(C(=O)c2ccccc2OC)c(N)s1	inconclusive: 22.4 µM [inhibitor, single point]	–
CC(CNc1ccc([N+](=O)[O-])cc1)NC(=O)c1ccccc1Br (stereo not drawn)	inconclusive: 22.4 µM [inhibitor, partial curve, poor fit]	–
O=C(O)c1cc(-c2cccc([N+](=O)[O-])c2)n[nH]1	–	inactive: 10.4%
C=CCn1c(COc2ccccc2-c2ccccc2)nnc1SCC(=O)NC(=O)NCc1ccco1	inconclusive: 28.2 µM [inhibitor, single point]	–
Cc1c(-c2nsc(NC(=O)c3cccs3)n2)nnn1-c1ccc(Br)cc1	inconclusive: 31.6 µM [inhibitor, single point]	–
CN(CCCC(=O)Nc1ccc(OC(F)F)cc1)S(=O)(=O)c1ccc(F)cc1	inconclusive: 28.2 µM [inhibitor, single point]	–
O=C(NCCc1ccccc1)C(=O)NCC1CCCN1S(=O)(=O)c1cccs1 (stereo not drawn)	inconclusive: 7.08 µM [inhibitor, partial curve, poor fit]	–
COc1cccc(-n2c(SCc3ccccc3C)nc3c([nH]c4ccccc43)c2=O)c1	–	inactive: -9.13%
COc1ccc(NC(=S)N(CCC(C)C)C2CCN(C(C)C)CC2)cc1Cl	inconclusive: 7.94 µM [inhibitor, partial curve, poor fit]	–
CC(C)(C)Cc1c(-c2ccccc2)nc2ccc(Cl)cn12	inconclusive: 35.5 µM [inhibitor, partial curve, poor fit]	–
O=C(N/N=C/c1cccnc1)c1cccc(NC(=O)c2cccc(Br)c2)c1	inconclusive: 0.501 µM [inhibitor, full curve, poor fit]	–
COC(=O)C[C@H]1C[C@H]2c3cc(NC(=O)Nc4ccc(C(F)(F)F)cc4)ccc3O[C@H]2[C@@H](CO)O1	inconclusive: 28.2 µM [inhibitor, single point]	–
Cc1cc(C)n(CC(O)CN2c3ccccc3Sc3ccccc32)n1 (stereo not drawn)	inconclusive: 10 µM [inhibitor, single point]	–
CCCCCCCOC(=O)c1nc(Cl)c(Cl)c(N)c1Cl	inconclusive: 12.6 µM [inhibitor, single point]	–
CCOC(=O)c1ccc(NC(=O)CCc2nc(-c3ccccc3Cl)no2)cc1	inconclusive: 31.6 µM [inhibitor, single point]	–
COc1cc(C(=O)Nc2ccc(S(=O)(=O)N(C)c3ccccc3)cc2)cc(OC)c1OC	–	inactive: -15.9%
CN(CC(=O)Nc1ccc(F)c(F)c1F)C(=O)C1CCCN1C(=O)c1cccs1 (stereo not drawn)	–	inactive: -3.62%
Fc1ccc(-c2cc(-c3ccccc3)c3c(n2)-c2cc(F)ccc2OC3)cc1	–	inactive: 6.13%
Nc1nc(NCCCN2CCOCC2)nc(NCc2ccccc2)c1[N+](=O)[O-]	–	inconclusive: -32.3% [inhibitor]
CC(C)c1ccc(NC(=O)CSc2n[nH]c(=O)n2Cc2ccco2)cc1	–	inactive: -7.68%
COc1cc(C2c3c(oc4ccccc4c3=O)C(=O)N2c2nncs2)cc(OC)c1OC (stereo not drawn)	–	inactive: 10.1%
O=C(Nc1nc2ccccc2n1CCOc1ccc(Cl)cc1)c1ccco1	inconclusive: 28.2 µM [inhibitor, single point]	–

SMILES	Potency	activity change, negative = inhibition
CC1CCN(CCc2nc3cc(NC(=O)COc4ccccc4)ccc3n2C)CC1	inconclusive: 12.6 µM [inhibitor, partial curve, poor fit]	–
C=CCNc1cc(C(F)(F)F)nc(-c2ccccn2)n1	inconclusive: 7.94 µM [inhibitor, partial curve, poor fit]	–
Cc1cc2ncn(/N=C/c3ccc4c(c3)OCO4)c2cc1C	inconclusive: 28.2 µM [inhibitor, single point]	–
COc1ccc(CNC(=S)Nc2cccc(C)c2)cc1	inconclusive: 28.2 µM [inhibitor, single point]	–
Cc1sc(NC(=O)CSc2nnc(-c3ccccc3)o2)c(C#N)c1C	inconclusive: 5.62 µM [inhibitor, partial curve, poor fit]	–
COc1cccc(NC(=O)CSc2nc3ncc(Br)cc3[nH]2)c1	inconclusive: 12.6 µM [inhibitor, partial curve, poor fit]	–
COc1ccc(NC(=S)NC(=O)C2CCC2)cc1	inconclusive: 12.6 µM [inhibitor, single point]	–
COC(=O)c1sc(NC(=O)c2cc3nc(-c4ccc(Br)cc4)cc(C(F)(F)F)n3n2)c(C(=O)OC)c1C	–	inactive: 7.39%
CCc1ccc(NC(=O)c2cc3nc(-c4ccc(C)cc4)cc(C(F)(F)F)n3n2)cc1	–	inactive: 1.73%
COc1ccc2c(c1)CCO[C@]21O[C@H](CCO)C[C@H](O)[C@H]1O	–	inactive: 1.62%
COc1cc(C(=S)N2CCN(c3ccccc3Cl)CC2)cc(O)c1O	inconclusive: 10 µM [inhibitor, partial curve, poor fit]	–
COc1ccc(NC(=O)CSc2ncccc2C(=O)O)cc1OC	–	inactive: 1.68%
O=C(c1c[nH]c2ccc(S(=O)(=O)N3CCC4(CC3)OCCO4)cc2c1=O)N1CCOCC1	–	inactive: -14.6%
C=CCNC(=S)N/N=C/c1ccc(C)cc1C	inconclusive: 0.447 µM [inhibitor, partial curve, poor fit]	–
O=C(CC1SC(=Nc2ccccc2)N(CCc2c[nH]c3ccccc23)C1=O)Nc1ccccc1F (stereo not drawn)	inconclusive: 12.6 µM [inhibitor, single point]	–
c1ccc(-c2nc(-c3ccncc3)n[nH]2)nc1	inconclusive: 28.2 µM [inhibitor, single point]	–
Cc1cc(Cl)ccc1NNC(=O)c1snnc1C	inconclusive: 28.2 µM [inhibitor, single point]	–
CCCCc1ccc(NC(=S)N2CCCC(C)C2)cc1 (stereo not drawn)	inconclusive: 28.2 µM [inhibitor, single point]	–
CCCCN(CCCNC(=O)c1ccc2nc(N3CCOCC3)sc2c1)Cc1ccccc1	inconclusive: 10 µM [inhibitor, single point]	–
O=C(c1[nH]c2ccccc2c1Sc1ccc(Cl)cc1)N1CCCCC1	–	inactive: -0.516%
O=C(NC(=S)NN1CCCCC1c1cccnc1)c1ccc(Br)cc1 (stereo not drawn)	inconclusive: 28.2 µM [inhibitor, single point]	–

— PubChem BioAssay AID624418 (National Center for Advancing Translational Sciences (NCATS), 2012)
